Measurements as given in PubChem BioAssay AID1347120 (National Center for Advancing Translational Sciences (NCATS), 2019).
The campaign covered roughly 390,000 compounds. About 930 (0.24%) were called active. Inconclusive results, whose numbers are uncertain, are shown with a selection of clear calls. Calls come from the whole dose curve; as a rule, active = well fitted activation curve with a large enough effect; inconclusive = small, poorly fitted or top-dose-only effect; inactive = no such curve, though single readings can be large or run the other way. Potencies beside an inconclusive call are fits to weak or partial responses and may not hold up.
Potency is the fitted concentration of half-maximal effect; tags give direction and shape of the fitted curve.

Test: qHTS for Suppressors of FUS Proteinopathy: Primary screen using FUS-linked yeast assay; note: nearly all actives have a fitted effect of over 55% in size;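 for growth rescue (activation): plate controls were DMSO vehicle for no effect and reference control for full effect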
Details: S. cerevisiae FUS-expressing, OD600, 24 h; Potency: growth rescue; growth rescue (activation): at 76.6 µM (top of the series)
Summary of the method: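 Read-out: OD at 600 nm after 24hr at 30C, reporting rescue of FUS-induced yeast toxicity. Cells at OD 0.005 in galactose (2%) minimal medium; compounds tested in a dilution series; CP55940 titration from 92uM final as control.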
With `Cc1cc(C(=O)O)c(C)o1` the Potency was “inactive”.
In the case of `Cc1ccc(S(=O)(=O)c2cn(Cc3ccccc3)c3cc(N4CCOCC4)c(F)cc3c2=O)cc1`, the Potency is reported as “inactive”.
For `CCCCCCCCN1C(=O)[C@H](CC(=O)NCc2cccc3ccccc23)C[C@@]2(C(=O)OCC)CCCC=C12`, the Potency was inconclusive: 14.1 µM [activator, partial curve, poor fit].
For `S=C(Nc1ccccn1)c1ccccn1`, the Potency was “inactive”.
For `CCCn1c(C(C)Nc2nc(-c3ccc(Cl)c([N+](=O)[O-])c3)cs2)nc2ccccc21` (stereo not given), the Potency was inconclusive: 50.1 µM [activator, single point].
With `Cc1cccc(NC(=O)c2ccc(C(=O)c3ccccc3)cc2)n1` the Potency was “inactive”.
In the case of `COC(=O)[C@]1(CNC(C)=O)CC(=O)N(C)[C@@H]1c1ccccc1`, the Potency is reported as “inactive”.
In the case of `COc1ccc(-c2cc(NC(C)=O)c3ncc(-c4cc(OC)c(OC)c(OC)c4)n3c2)cn1`, the Potency is reported as inconclusive: 39.8 µM [activator, single point].
With `Cc1ccc(OCC(=O)Nc2ccc(S(=O)(=O)N3CCCCC3)cc2)c([N+](=O)[O-])n1` the Potency was “inactive”.
For `Cc1ccc(Nc2nc(CSc3nnc(-c4cccnc4)n3-c3ccccc3C)cs2)cc1`, the Potency was inconclusive: 35.5 µM [activator, single point].
For `C#CCn1c(S(=O)(=O)Cc2ccc(OC)cc2)nc(-c2ccccc2)c1-c1ccccc1`, the Potency was active: 25.1 µM.
In the case of `CCCCC(=O)N/N=C/c1ccc(-c2ccc([N+](=O)[O-])cc2)o1`, the Potency is reported as “inactive”.
In the case of `Cc1ccccc1NC(=O)c1oc2c(c1C)-c1nn(Cc3cccc(Cl)c3)cc1CC2`, the Potency is reported as “inactive”.
With `CCCOc1ccc(C2C(C(=O)c3ccc(C)o3)=C(O)C(=O)N2CCN2CCOCC2)cc1OC` (stereo not given) the Potency was inconclusive: 35.5 µM [activator, single point].
With `Cc1cc(SCc2cc(=O)n3ccsc3n2)nc2ccccc12` the Potency was “inactive”.
For `O=C(O)COc1ccc(-c2nc(-c3ccccc3)c(-c3ccccc3)[nH]2)cc1`, the Potency was “inactive”.
In the case of `Cc1ccc(NC(=O)COC(=O)c2cccc(C)c2[N+](=O)[O-])cc1S(=O)(=O)N1CCCCC1`, the Potency is reported as inconclusive: 15.8 µM [activator, partial curve, poor fit].
For `Cc1[nH]c2ccccc2c1C1=NNC(=Nc2ccc(F)cc2)SC1`, the Potency was inconclusive: 39.8 µM [activator, single point].
With `NC(=O)CC(NC(=O)c1ccc(Br)cc1)c1ccc(N2CCC(Cc3ccccc3)CC2)c([N+](=O)[O-])c1` (stereo not given) the Potency was inconclusive: 28.2 µM [activator, single point].
For `CCOC(=O)C1CCN(C(=O)CCS(=O)(=O)Cc2ccccc2)CC1`, the Potency was inconclusive: 50.1 µM [activator, single point].
For `CCN(CC)C(=O)CC[C@@H]1CC[C@]2(CCCN(Cc3cccs3)C2)O1`, the Potency was “inactive”.
For `COc1ccc(CCNc2ccc(C(CC(N)=O)NC(=O)Cc3ccc(Br)cc3)cc2[N+](=O)[O-])cc1` (stereo not given), the Potency was inconclusive: 28.2 µM [activator, partial curve, poor fit].
With `O=C(Nc1ccc(Cl)cn1)c1cccc(S(=O)(=O)N2CCCCCC2)c1` the Potency was “inactive”.
With `CC1CCN(C(=O)CSc2nnc(Cc3cccn3C)n2-c2ccc(F)cc2)CC1` the Potency was inconclusive: 20 µM [activator, partial curve].
For `COc1cccc(NC(=O)CN(C)CC(=O)Nc2ccc(C)c([N+](=O)[O-])c2)c1`, the Potency was inconclusive: 14.1 µM [activator, partial curve].
For `CCOc1ccc(Oc2ccc(NS(=O)(=O)c3cc(C(=O)O)ccc3Cl)cc2)cc1`, the Potency was inconclusive: 28.2 µM [activator, partial curve, poor fit].
With `CC(=O)Nc1nc(-c2ccc([N+](=O)[O-])cc2)cs1` the Potency was “inactive”.
In the case of `Cc1ccc(S(=O)(=O)N2C[C@H]3C(=O)C[C@@H](c4ccc(Cl)cc4)N(S(=O)(=O)c4ccc(C)cc4)[C@H]3C[C@H]2c2cccc3ccccc23)cc1`, the Potency is reported as inconclusive: 14.1 µM [activator, partial curve].
With `CCCCCCCCCCOC(=O)Cn1c(COc2ccc(OC)cc2)[n+](C)c2ccccc21` the Potency was inconclusive: 25.1 µM [activator, partial curve].
In the case of `C/C(=N\N=C(/N)SC1CC(=O)N(c2ccc(Br)cc2)C1=O)c1cccs1` (stereo not given), the Potency is reported as inconclusive: 39.8 µM [activator, single point].
With `Cc1ccsc1/C=N/NC(=O)Cc1ccc(Cl)cc1` the Potency was “inactive”.
For `COC(=O)C(C)N(C(=O)c1ccc(C(=O)c2ccccc2)cc1)c1c(C)cccc1C` (stereo not given), the Potency was inconclusive: 31.6 µM [activator, partial curve, poor fit].
In the case of `O=C1NC[C@@H](CCCCN2C[C@H](Cc3ccc(O)cc3)N(CCC3CCCCC3)C(=O)C2=O)N(CCC2CCCCC2)C1=O`, the Potency is reported as inconclusive: 31.6 µM [activator, single point].
For `Nc1c(C(=O)Nc2ccccc2F)sc2nc(-c3cccnc3)ccc12`, the Potency was “inactive”.
In the case of `c1ccc2sc(N3CCOCC3)nc2c1`, the Potency is reported as inconclusive: 14.1 µM [activator, partial curve, poor fit].
For `COc1ccc(CCNC(=O)c2ccc(Cn3c(=O)c4ccccc4n(CC(=O)C(C)(C)C)c3=O)cc2)cc1OC`, the Potency was inconclusive: 25.1 µM [activator, single point].
With `Cc1ccccc1C(=O)N(Cc1sccc1C)C1CCS(=O)(=O)C1` (stereo not given) the Potency was “inactive”.
For `O=C(COC(=O)c1cc(S(=O)(=O)N2CCOCC2)c(Cl)cc1Cl)NCc1ccco1`, the Potency was “inactive”.
For `CC(=O)c1cccc(-c2ccnc3c2CC(C(=O)Nc2ccc4c(c2)OCO4)O3)c1` (stereo not given), the Potency was inconclusive: 31.6 µM [activator, single point].
For `COc1ccc(Cl)cc1NC(=O)c1c(NCc2cccnc2)sc2c1CCC(C)C2` (stereo not given), the Potency was “inactive”.
For `CCCCNC(=O)C1C(c2ccc(OC)cc2)=Nc2ccccc2N1C(=O)c1ccc2ncccc2c1` (stereo not given), the Potency was inconclusive: 22.4 µM [activator, single point].
For `Nc1cc(-c2ccc(Br)cc2)[nH]n1`, the Potency was inconclusive: 35.5 µM [activator, single point].
For `O=C(O)C1C2C=CC(CC2)C1C(=O)O` (stereo not given), the growth rescue (activation) was inconclusive: 49.4% [activator].
For `CC(=O)Nc1cc(-c2cccc(NS(C)(=O)=O)c2)cn2c(-c3ccc(F)c(Cl)c3)cnc12`, the Potency was inconclusive: 39.8 µM [activator, single point].
With `CCOC(=O)CCCCCC(=O)Nc1ccc2c(c1)C(=O)N([C@H](C)CO)C[C@H](C)[C@@H](CN(C)C(=O)Nc1ccccc1)OCCCC[C@@H](C)O2` the Potency was inconclusive: 17.8 µM [activator, partial curve, poor fit].
With `Cc1ccc(NC(=O)/C=C\C(=O)N(c2ccc(C(C)C)cc2)C(C(=O)NCc2ccco2)c2ccc(F)cc2)cc1` (stereo not given) the Potency was inconclusive: 5.01 µM [activator, full curve, poor fit].
In the case of `CCC(C)NC(=O)CCCc1nnc2n(CC(C)C)c(=O)c3sccc3n12` (stereo not given), the Potency is reported as “inactive”.
For `COc1cccc(NC(=S)N/N=C2\CC(C)(C)Oc3ccc(O)cc32)c1`, the Potency was inconclusive: 44.7 µM [activator, single point].
In the case of `CCN(CC)C(=O)C1CCN(S(=O)(=O)c2c(C)noc2/C=C/c2cccc(OC)c2)CC1`, the Potency is reported as inconclusive: 35.5 µM [activator, single point].
For `COc1cccc(/C=N/NC(=O)c2nc(-c3ccccc3)cc(-c3ccccc3)n2)c1`, the Potency was “inactive”.
For `Cc1cc(Br)c2c(c1)/C(=C/C(=O)c1cccs1)C(=O)N2`, the Potency was “inactive”.
In the case of `CN(C)S(=O)(=O)Oc1ccsc1C(=O)Nc1cccc(Cl)c1Cl`, the Potency is reported as “inactive”.
In the case of `Cc1ccc(NC(=O)N2CCN(Cc3ccc4c(c3)OCO4)CC2)cc1`, the Potency is reported as inconclusive: 15.8 µM [activator, partial curve, poor fit].
In the case of `CC(C)CNS(=O)(=O)c1ccc(CCC(=O)NCc2cccnc2)cc1`, the growth rescue (activation) is reported as inconclusive: 85.6% [activator].
For `Cc1ccc(Nc2c(C(C)C)c(C)c(C#N)c3nc4ccccc4n23)cc1`, the Potency was inconclusive: 50.1 µM [activator, single point].
For `COc1cc(/C=C2/C(=N)N3N=C(C(C)C)SC3=NC2=O)ccc1OS(=O)(=O)c1ccccc1`, the Potency was inconclusive: 39.8 µM [activator, single point].
With `Cc1ccccc1NC(=O)/C=C/c1cccs1` the Potency was “inactive”.
For `COC(=O)C1=C(C(=O)OC)[C@@H]2N(C)c3ccccc3[C@@]23C[C@@H](C(=O)OC)N(C(=O)C2CCC2)C3=N1`, the Potency was inconclusive: 20 µM [activator, single point].
In the case of `CC[C@]12c3[nH]c4ccc(OC)cc4c3CCN1C(=O)C(CC(=O)NC/C=C(\C)CCC=C(C)C)C[C@@H]2C(=O)N1CCN(C(=O)c2ccco2)CC1` (stereo not given in full), the Potency is reported as inconclusive: 25.1 µM [activator, single point].
For `CC(C)c1ccc(OCC(=O)NCc2ccco2)cc1`, the growth rescue (activation) was inconclusive: 74.9% [activator].
With `COc1ccc(C(=O)c2c(-c3cccc(C)c3)oc3ccc(N4CCOCC4)cc23)cn1` the Potency was inconclusive: 31.6 µM [activator, partial curve, poor fit].
For `CC1(C)CC(=Cc2ccccc2[N+](=O)[O-])C(=O)c2ccccc21`, the Potency was “inactive”.
In the case of `O=C(c1cccs1)N(Cc1nc2sc3c(c2c(=O)[nH]1)CCCC3)C1CCCC1`, the Potency is reported as inconclusive: 35.5 µM [activator, single point].
In the case of `CCCn1c(NC(=O)c2cccc(S(=O)(=O)N3CCCC3)c2)nc2ccccc21`, the Potency is reported as inconclusive: 12.6 µM [activator, partial curve].
In the case of `CSc1ccc(-c2nc3cccc(C)n3c2Nc2ccc(Cl)cc2)cc1`, the Potency is reported as inconclusive: 35.5 µM [activator, single point].
